Test results as given in the supplement of paper PMC10126150.
Sequences with one replicate were seen in a single cluster, so their values are uncertain.

Tested on: ATP
Assay: switch fluorescence ratio, 500 uM ATP over buffer (Cy3 cluster intensity, sum of 5 cycles each) (fold (ratio)); higher = stronger signal-on switching upon ATP binding; sequences stand for … in TCGTCGGCAGCGTCAGATGTGTATAAGAGACAGTTTTTTTTTTTTTTTTTTTTTTTTT…TC
Details: aptamer strand: ATP DNA aptamer (quencher-CACCTGGGGGAGTATTGCGGAGGAAGG + anchor), 100 nM annealed; ATP concentration: 500 uM; one replicate
Procedure, shortened: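 The fluorescence ratio divides summed target-cycle Cy3 intensity by summed buffer-cycle Cy3 intensity for each cluster and is averaged per switch-domain sequence. Cy3-labelled switching-strand clusters on a modified Illumina MiSeq flow-cell were annealed to 100 nM quencher-labelled ATP aptamer, then imaged in selection buffer and again after 15 min with 500 uM ATP at 22 °C. Five such cycles were run, with NaOH stripping and re-annealing between them, and clusters outside 100-1000 RFU were excluded.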
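Further: ATP exposure 15 min at 22 °C before imaging.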

Sequence | switch fluorescence ratio
GCGTACGTCA | 1.03
TTGGAAGTCT | 0.943
GAAATAGTTA | 0.993
AAGGAGGAGG | 0.972
GGGATTCTT | 0.939
CAGTTCTTAG | 0.99
ATAATCGACT | 0.999
AGCTCGTTAG | 1.01
ACCGGGGCGC | 1.24
TGGCACAATA | 1.01
GGTTTATACT | 1.1
CTAAATTCCT | 1.07
TAAGTTATGC | 1.04
CGATCACGGA | 1.07
CTGAAACTAT | 0.951
TCTTGGTTC | 1.05
CAGACAGGGT | 1.01
TTAAAGAA | 1.03
GGCGGAGGTG | 1.12
ACGCTCCACC | 1.15
CAGGAAGTGA | 0.991
TCCCTTTTTA | 1.14
GGTTGTGATT | 0.999
TAGCTAAACT | 0.993
AGGCGAATAT | 1.11
TTAGTCCATG | 1

Sequence | switch fluorescence ratio
GCTGCTGGAA | 1.04
ACTTCAATAG | 1.12
ACGAGTCTTG | 0.963
GTAGTCGTGC | 0.992
CACTCACGCC | 1.49
TGGTAGTGAG | 1.01
TCGAGACGGG | 0.995
TAAAGGCACA | 1.02
TTTTGGCAGC | 1.08
AGATATAGGT | 1.02
GAACGATTAG | 0.968
CGATCTGTAT | 0.981
CATGGCAGTC | 1.07
TCAGTATGAT | 1.03
GTGTTCCGGT | 0.985
ACAAGCTTAT | 1.06
CCCGAAATCG | 1.35
AGATTAGCAT | 1.05
AAGTATGT | 1.03
GCAAGCTCCT | 2.9
TGTGGTCACT | 1.02
TCGCGTGTCA | 1.04
AGAACCATTT | 0.989
AAGCTATACA | 1.37
AAGCCCGCAA | 2.17
CAACTTGTTA | 0.981

Sequence | switch fluorescence ratio
GAATAGAGCC | 0.99
GACCATCTAG | 0.962
GTTTCCTTCA | 1.2
TACGCTTATT | 1.03
GAATCACTAC | 1.1
TATTGGTAC | 1.02
CGAACCGGAA | 1.21
ACCAAAAAGT | 0.957
GGTTTAATCT | 1.02
CTGACATCTG | 0.991
TTGAGAACGG | 1
CCATGAACCC | 1.07
ACGTCCATC | 1.12
GATGTAAGGG | 1.01
AGGGGCAGCG | 1.03
AGTGACGA | 0.989
ACGGATCGGG | 1.02
TCTGTTTTTC | 1.1
AGGGGGTCG | 0.94
TTCGATGTTC | 0.977
GTTTGTGCAA | 1.02
CCTGGTCTAC | 1.59
TGATTCAAGG | 1
GGGCAAACCT | 2.23
AAGATCGTCA | 0.965
TTCGATGGGA | 0.989

Sequence | switch fluorescence ratio
CGCATGTGCA | 1.05
TAGATATTCT | 0.979
ATGGAATCCG | 1.02
CGCCCGGCTC | 1.04
CAAATGATC | 1.05
GAGGTTTGGA | 1.04
CCTTGGTATG | 1.01
ATGGATAAGT | 0.97
TTACCTCGTT | 1.03
TTGTTTTGGC | 0.986
ACCCAGTAT | 1.05
TTGAGTATTG | 1.03
GCAGGTTAGA | 1
GATTCTAATT | 0.99
CTCAAGCCTA | 1.05
TCTGCCCACA | 1.39
CATGATGCAG | 1.01
AACGGGTCGG | 1.01
GGACTTTGAA | 0.981
ACCAGTGCT | 1.13
AGCCGTGTGA | 1.06
ACGGGGCATA | 1.1
GGTAATACAG | 0.979
TCGGGGAAGC | 1.01
GTTATAGGTC | 1.01
AGCATTTACT | 1.39

Sequence | switch fluorescence ratio
GAGCGCTCGT | 1.02
GCAAAAAGTA | 0.976
ATGAGCACGG | 1.01
CAGCAACTTA | 1.1
GTGTGCTTCC | 1.66
ATTATGGGCC | 1.03
CAGAGTGACT | 1.03
CGCCGGTAGA | 1.06
CTGGGGGCCC | 1.02
ATGGCGTAG | 0.985
TTATGTACGC | 1.04
CTGAAGGCTC | 1.14
CTGTTGATAT | 0.982
AGCAGACTCT | 1.74
TCTCGAGTCT | 0.987
TAATGCCGCC | 1.03
AGGTGCG | 0.983
TGGGCCCAGC | 0.975
TGCGAGAGCT | 1.07
CACGGGATAT | 1.16
AGCGGAGGAG | 0.977
CACGTGGAAC | 1.04
TTCGGAGCGC | 0.999
AGTTAGGTCT | 0.935
CCAGATACCG | 1.02
TTTATTTTAG | 1.05

Sequence | switch fluorescence ratio
CGACTCAGG | 1.11
TAGGAGAATT | 0.977
TTTAACCGGG | 0.985
TCATTGCGAC | 1.08
AGGTGGTACG | 0.985
CAGGTATAAT | 1
CTGTTCTATG | 0.968
AAATGAGCTC | 0.999
TAAGCGTAAC | 1.12
CTTTCGGGCG | 0.992
AAATGGGCGG | 1.03
TCCGGGATAC | 4.01
TCTTACGTTA | 1.13
GAATCGGTGT | 0.976
GATTGAACTT | 1.03
AGGGGACGGA | 1.01
GGTTTGTTAC | 0.959
TCAGGGTA | 0.964
TAGAAGTGAA | 0.944
TACTCACCA | 1.24
TGGTTTAAGA | 0.979
TGTTCATAGT | 1.01
ACCAACCCGA | 1.18
TGCACCATGG | 0.977
TTGGTTACGC | 1.04
TCGAGTTGCG | 0.957

Sequence | switch fluorescence ratio
TGCAGTGCTT | 1.03
TCGTACAAAG | 1.04
AGGACACCGC | 1.12
GCCCATGAAC | 0.995
CATAGAACGT | 1.04
GGGCGGAACG | 1.04
TAAATGACAG | 1.01
TCTTGGAGTT | 1.04
ACGGAGTGGT | 1.02
CAGTGTGCGT | 1.02
CAGCGTCCTG | 1.01
ACAGGGGCA | 1.08
CCGGCCTATA | 1.53
CGGGAAGCCT | 1.05
TCGGGGGCCG | 0.993
ATTGTAGGCC | 1.05
ACGAAACAG | 1.11
CACAAACCGT | 1.17
CCCTGGGTTT | 1.05
GATCCATAGG | 0.973
AGCCCAGGAA | 1.22
GAGTAATACG | 1.3
TTTGCTGTAC | 1.73
CGGAAAAGAT | 1
TGATATCACG | 1.04
CTGTATTTCA | 1.03

Sequence | switch fluorescence ratio
TGATCTGACA | 1.01
AATTAACATT | 1.04
GGACTTCCGC | 1.57
TTAACAAAGT | 1.25
GTCACATG | 1.02
GATCCGGTT | 1.01
AATTCTAACT | 1.01
CGACAATTAT | 1.18
ACTACGGGC | 1.02
TGCCAGCGCG | 0.998
TGGGTTCATG | 1.03
TTGGATCCAG | 1.04
ACCTAGGGTA | 1.04
AGTAATAATC | 1.17
TGCGAAGGAC | 1.09
TGGCCGAGGA | 0.971
CCCACTCATT | 1.06
GGGACTGAAA | 0.977
CACTGTCCTG | 1.04
